According to a collection of fitness landscapes (doi:10.1016/j.celrep.2020.107928):
Over roughly 81,000 sequences, “one-hybrid fitness for binding parS DNA” has its median near -0.17; the highest 2% begin near 0.51. The list shows a part of the results.

B1: Caulobacter ParB omega fusion; a variant is named by its letters at X, in order, B8GW30 (parent)
chain: MESVVVGEPGMSEGRRGLGRGLSALLGEVDAAPAQAPGEQLGGSREAPIEILQRNPDQPRRTFREEDLEDLSNSIREKGVLQPILVRPSPDTAGEYQIVAGERAWRAAQRAGLKTVPIMVRELDDLAVLEIGIIENVQRADLNVLEEALSYKVLMEKFERTQENIAQTIGKSXSHVANXMRLLXLPDEVQSYLVSGELTAXHARAIAAAADPVALAKQIIEGGLSVRETEALARKAPNLSAGKSKGGRPPRVKDTDTQALESDLSSVLGLDVSIDHRGSTGTLTITYATLEQLDDLCNRLTRGI

Variants of: B1
Experiment: one-hybrid fitness for binding parS DNA (scaled: cognate 1, non-cognate 0); higher = stronger binding
Details: with parS DNA site
Procedure, shortened: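 The reporter was HIS3, with the binding site 19 bp from the promoter, in E. coli USO used for bacterial one-hybrid selection of Caulobacter ParB libraries with four specificity codons randomised. Growth was on M9 lacking histidine, with 0.1 mM IPTG and 5 mM 3-AT, for 48 hours at 37°C. Illumina sequencing covered plasmids before and after selection; three replicate libraries were pooled and variants with under 10 reads dropped. A fitness score is the log change in variant-to-wild-type read ratio, rescaled to the cognate and non-cognate references.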

Row | Variant | one-hybrid fitness for binding parS DNA
1 | YPDT | ≤ 0.2
2 | KTWD | ≤ 0.2
3 | KAGM | ≤ 0.2
4 | VQDV | ≤ 0.2
5 | DFFV | ≤ 0.2
6 | ADRS | ≤ 0.2
7 | LVYG | ≤ 0.2
8 | STTP | ≤ 0.2
9 | VYRT | ≤ 0.2
10 | VHFM | ≤ 0.2
11 | CYNK | ≤ 0.2
12 | LGQN | ≤ 0.2
13 | CLSG | ≤ 0.2
14 | FGVN | ≤ 0.2
15 | TAHW | ≤ 0.2
16 | MMNR | ≤ 0.2
17 | QKPK | ≤ 0.2
18 | GLAY | ≤ 0.2
19 | PWNP | ≤ 0.2
20 | CQHV | ≤ 0.2
21 | FRSK | ≤ 0.2
22 | QCQD | ≤ 0.2
23 | SGER | ≤ 0.2
24 | YKSW | ≤ 0.2
25 | EALC | ≤ 0.2

Row | Variant | one-hybrid fitness for binding parS DNA
26 | QSRE | ≤ 0.2
27 | DKTC | ≤ 0.2
28 | HGTW | ≤ 0.2
29 | SSHT | ≤ 0.2
30 | NKCV | ≤ 0.2
31 | RCGQ | ≤ 0.2
32 | YSFV | ≤ 0.2
33 | SPAY | ≤ 0.2
34 | NIVT | ≤ 0.2
35 | NSSR | ≤ 0.2
36 | NHMC | ≤ 0.2
37 | VRSV | ≤ 0.2
38 | HHYT | ≤ 0.2
39 | RKRK | ≤ 0.2
40 | GGNR | ≤ 0.2
41 | NGCG | ≤ 0.2
42 | RMMH | ≤ 0.2
43 | RWQA | 0.404
44 | CTTD | ≤ 0.2
45 | TEHA | ≤ 0.2
46 | VVSI | ≤ 0.2
47 | YGNS | ≤ 0.2
48 | ARLA | ≤ 0.2
49 | QKLA | ≤ 0.2
50 | YRAR | ≤ 0.2

Row | Variant | one-hybrid fitness for binding parS DNA
51 | RFHD | ≤ 0.2
52 | SPKL | ≤ 0.2
53 | VQRS | ≤ 0.2
54 | IRNH | ≤ 0.2
55 | YVPF | ≤ 0.2
56 | QNGS | ≤ 0.2
57 | QSKV | ≤ 0.2
58 | YDTE | ≤ 0.2
59 | QVWD | ≤ 0.2
60 | WLQA | ≤ 0.2
61 | HPRV | ≤ 0.2
62 | VTAC | ≤ 0.2
63 | AGAD | ≤ 0.2
64 | QNSD | ≤ 0.2
65 | RTKI | ≤ 0.2
66 | HRDK | ≤ 0.2
67 | ETAG | ≤ 0.2
68 | DAPW | ≤ 0.2
69 | RVIW | ≤ 0.2
70 | PKCR | ≤ 0.2
71 | RFSE | ≤ 0.2
72 | IWPS | ≤ 0.2
73 | LRHC | ≤ 0.2
74 | VGSE | ≤ 0.2
75 | IAHS | ≤ 0.2

Row | Variant | one-hybrid fitness for binding parS DNA
76 | DANL | ≤ 0.2
77 | HLRW | ≤ 0.2
78 | MLGY | ≤ 0.2
79 | EDCE | ≤ 0.2
80 | THSL | ≤ 0.2
81 | LEGR | ≤ 0.2
82 | DATH | ≤ 0.2
83 | GLPA | ≤ 0.2
84 | RPLH | ≤ 0.2
85 | ARNE | ≤ 0.2
86 | KHRY | ≤ 0.2
87 | ARWY | ≤ 0.2
88 | KRRW | ≤ 0.2
89 | RADY | 0.389
90 | EDRM | ≤ 0.2
91 | WSLP | ≤ 0.2
92 | AGDR | ≤ 0.2
93 | RRIV | ≤ 0.2
94 | YDGP | ≤ 0.2
95 | PKIR | ≤ 0.2
96 | DPRF | ≤ 0.2
97 | AWHI | ≤ 0.2
98 | QTIW | ≤ 0.2
99 | RTEF | 0.202
100 | EHKG | ≤ 0.2

Row | Variant | one-hybrid fitness for binding parS DNA
101 | QECS | ≤ 0.2
102 | SFYN | ≤ 0.2
103 | LQKY | ≤ 0.2
104 | QQGG | ≤ 0.2
105 | EYTM | ≤ 0.2
106 | KVSY | ≤ 0.2
107 | LFGG | ≤ 0.2
108 | NCWR | ≤ 0.2
109 | WAHS | ≤ 0.2
110 | MGEG | ≤ 0.2
111 | NGRT | ≤ 0.2
112 | IWME | ≤ 0.2
113 | DTMP | ≤ 0.2
114 | WHAD | 0.215
115 | KRTC | ≤ 0.2
116 | PYID | ≤ 0.2
117 | TTWS | ≤ 0.2
118 | QKTV | ≤ 0.2
119 | WMYR | ≤ 0.2
120 | FFTR | ≤ 0.2
121 | RHCY | 0.371
122 | CLRC | ≤ 0.2
123 | HMQA | ≤ 0.2
124 | YSGE | ≤ 0.2
125 | AERR | ≤ 0.2

Row | Variant | one-hybrid fitness for binding parS DNA
126 | TFSS | ≤ 0.2
127 | LSLS | ≤ 0.2
128 | PYYS | ≤ 0.2
129 | RHCR | ≤ 0.2
130 | QECT | ≤ 0.2
131 | RCYS | 1
132 | QQQH | ≤ 0.2
133 | VKWG | ≤ 0.2
134 | STDL | ≤ 0.2
135 | PFQA | ≤ 0.2
136 | QYRG | ≤ 0.2
137 | RRFF | ≤ 0.2
138 | NWGG | ≤ 0.2
139 | HKLG | ≤ 0.2
140 | AHDM | 0.24
141 | DFQG | ≤ 0.2
142 | RSCK | ≤ 0.2
143 | VVNC | ≤ 0.2
144 | NYRS | ≤ 0.2
145 | ARSF | ≤ 0.2
146 | KPSY | ≤ 0.2
147 | YCRR | ≤ 0.2
148 | KLNS | ≤ 0.2
149 | DSFS | ≤ 0.2
150 | DWLV | ≤ 0.2

Row | Variant | one-hybrid fitness for binding parS DNA
151 | QAML | ≤ 0.2
152 | KNAV | ≤ 0.2
153 | NMGN | ≤ 0.2
154 | AKAM | ≤ 0.2
155 | GRMM | ≤ 0.2
156 | AKMC | ≤ 0.2
157 | GLPG | ≤ 0.2
158 | QCPI | ≤ 0.2
159 | NCKT | ≤ 0.2
160 | PEAR | ≤ 0.2
161 | RLWC | 0.952
162 | HPPL | ≤ 0.2
163 | CHAC | ≤ 0.2
164 | TMKD | ≤ 0.2
165 | VTSV | ≤ 0.2
166 | KPMT | ≤ 0.2
167 | HPPC | ≤ 0.2
168 | HLAP | ≤ 0.2
169 | AIYH | ≤ 0.2
170 | QLTW | ≤ 0.2
171 | STYN | ≤ 0.2
172 | SKWS | ≤ 0.2
173 | CRVK | ≤ 0.2
174 | SNTY | ≤ 0.2
175 | GRTT | ≤ 0.2

Row | Variant | one-hybrid fitness for binding parS DNA
176 | TDHM | ≤ 0.2
177 | NWIV | 0.206
178 | RDKW | ≤ 0.2
179 | HPNR | ≤ 0.2
180 | QMNV | ≤ 0.2
181 | VTKT | ≤ 0.2
182 | APRA | ≤ 0.2
183 | SSAY | ≤ 0.2
184 | RYLV | ≤ 0.2
185 | KMHM | ≤ 0.2
186 | RLSV | ≤ 0.2
187 | SCLV | ≤ 0.2
188 | RTMC | 0.982
189 | ACCT | ≤ 0.2
190 | VLLM | ≤ 0.2
191 | MILT | ≤ 0.2
192 | FPGS | ≤ 0.2
193 | RGNM | ≤ 0.2
194 | RHPA | ≤ 0.2
195 | AQYR | ≤ 0.2
